# Assay results from the supplement of paper PMC11417369.
# This is one part of the list.
# Test system: PfAP2-HC AP2 domain (GST-tagged)
# Assay: gcPBM binding intensity (ln(normalized median fluorescence intensity)); higher = stronger DNA binding
# In short: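 GST-tagged P. falciparum DNA-binding domains produced in E. coli were incubated for 1 h on an Agilent 4 × 180k array of primer-extended double-stranded 36-bp intergenic genomic probes with negative controls. Binding intensity is the highest Masliner-normalised natural-log median intensity across replicate spots of either probe orientation, with bound protein detected by Alexa488 anti-GST antibody at 488 nm.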
row,Sequence,gcPBM binding intensity (ln)
1,ATATTGTGTTATAAATGTACACAATTTCCTTTCATA [XGTACX_site7481],9.63
2,ATATATGTTCCTTTTACACACATAATCTTTTTTTTA [CACACA_site2661],9.99
3,TTTTTAAAAATATACACACACAGATATTATATATAT [CACACA_site786],10.4
4,AAAATATAATATAATGCACACATAAAAAAAAAAAAA [CACACA_site7989],9.84
5,AAAAAAAAGGAAATAACACACATGTATATATCTATA [CACACA_site6856],9.84
6,TTCATATAGAATTGTACACACAAAAACGACATTGTG [CACACA_site7061],9.81
7,ATATATATATGTATGTATATATATATATATGTTTGA [GTGCAC_negctrl_site561],9.79
8,GGGGACGCGGGTGGGGGTACTCACACTATGCAAAAT [XGTACX_site7745],9.74
9,GTATCAATAAAAAACAGTACATATATAATATATTTA [XGTACX_site1083],9.62
10,TGAGATAACAAAAGTTGTACTTTTTTTTTTTTTTTT [XGTACX_site3004],9.38
11,AAATATATATAAAACTCACACATTATCTTATAACCA [CACACA_site5268],9.82
12,TTTAATAAAAAAATTAAAAATAAAGAAAAAAAAAAA [CACACA_negctrl_site1464],9.42
13,ATGTATGGAAATTTTACACACAAGAGTAGTTTAAAA [CACACA_site1710],9.9
14,AAAAAATAATATTGTACACACATAAATTCTTTGTCA [CACACA_site5187],9.82
15,TATGTGTATACAATATGTACATATGTTAACTTGTAT [XGTACX_site872],9.78
16,GCGTAATCTATTTGCACACTTATTTGTTCTTAAAAA [CACACA_site672],9.73
17,TTAAATAAATATAAGTGTACATACACACTTTACAAT [XGTACX_site6348],9.72
18,GCATATGTTCAGCGTTGTACATAAAAAAAAACATAT [XGTACX_site5974],9.49
19,GTTTAAAGTTGAACAAGTACACATTTATATAAGGCA [XGTACX_site351],9.57
20,TTTATTTATTACTAAAGTACTAAATCATATAATTAT [XGTACX_site3654],9.46
21,TTTTGAAAGTTTTTGTGTCCACATATATTTATATAT [XGTACX_site6563],9.82
22,TAAAAATATAAAACATGTACATATATGCATATATTT [XGTACX_site8093],9.73
23,ATTATAAACCAGAATGCATGTAGATGAATCTTTTCT [TGCATGCA_site284],9.6

row,Sequence,gcPBM binding intensity (ln)
1,ATATCATAAGTAGAAACACACAATTAGATTTTTTCC [CACACA_site2353],9.78
2,TTTTATAAATACACACGTACGTGTGCATAACGTTTT [XGTACX_site3199],10.1
3,AAAAAAAATAATATTGTACACACATAAATTCTTTGT [CACACA_site8654],10.1
4,TACTTTTTAAAAATGTTTTATATAATAAAAAGATAT [CACACA_negctrl_site678],9.47
5,TAAGCCTTTCTATTATGTACTTATTAAAACATGTAG [XGTACX_site8022],9.41
6,CTTATATTAAAACACACACACGCACAAAACAGAAAT [CACACA_site1462],11
7,AAATTTATTTCTGTGTGTCCACAAAAAAAAATCTTT [XGTACX_site691],9.55
8,TTTTTTTTTTTCAATAGTACTTTCCATTTACATATA [XGTACX_site3889],9.71
9,TAATTGAGCAAATGAGTGCACAGCATAAAGTATAGT [GTGCAC_site9497],10.1
10,AAATTTAAAATAAGTAGTACATAATATAAATAAATA [XGTACX_site3592],9.67
11,TATAAAAGAAACTATACACACATATTTTAAATATTT [CACACA_site2753],9.8
12,GTACTTGTATTATGCACACATATAATTAAACATATA [CACACA_site3312],9.87
13,TAATATTATATTATATGTACATAACAAATTATATTT [XGTACX_site4296],9.67
14,ATGAAAAAATTTAAATGTACATTACATATATTTATT [XGTACX_site2524],9.61
15,TTTTTTTCTCTTTTTATTACAAAAAGGGTTTATATA [TGCATGCA_negctrl_site75],9.25
16,ATGAGTAACATATTTGTGCACATATGGTTATTTTTA [GTGCAC_site9541],9.65
17,AAAAAAAATTCCAGTACACACAATAATACTAAAAAT [CACACA_site2801],10
18,AAAAATTACAAAAATGCATGTACTATTCATATTTTT [TGCATGCA_site918],9.79
19,ATGCATATAATTATATGTACATATAAGAAATATATA [XGTACX_site517],9.78
20,CATTTATTATGATAAAGTACTTAAATTAATAGATAA [XGTACX_site3566],9.37
21,ATAAAAAACAGTGGCACACATTATGTATCCACCTTT [CACACA_site5958],9.75
22,CATATAAAGATATGAACACACAAAAAGAATATTTCC [CACACA_site6811],9.88
23,AATAATAAAAAATACACACACATATAAATATATTAC [CACACA_site7597],10.3

row,Sequence,gcPBM binding intensity (ln)
1,AGGACACATATATGCAAAAAAAAAAAAAAAAAAAAA [TGCATGCA_negctrl_site427],8.93
2,TTCCGAACGACCTAAAGTACATGTATTTCAACTTTT [XGTACX_site1220],9.76
3,TATGCACACAATATATGTACTTATATATTTTAAAAA [XGTACX_site5482],9.7
4,TTTTATAAAAAAACTATAAAAATATATAGTACTTAA [CACACA_negctrl_site440],9.21
5,TCTTTTTTTTTTTTTTTTTCTTCTTCTCAATATAAA [GTGCAC_negctrl_site303],9.44
6,TAGTGTATGATAATATGTACATACATTTATATAATA [XGTACX_site6330],9.78
7,CATAATATGTGGACTTTACACACTTGTTTTAAAATT [CACACA_site819],9.73
8,TATATGTATAGAAAATGTACATATAAATATATATAT [XGTACX_site3420],9.88
9,TAAAATTAATTTCTGTTGCACTTATTATTAATTAAC,9.7
10,TTTTTTTTTTTTTGCACACACCATATTTATAGAAAT [CACACA_site5772],10.2
11,ATATTATACCCGTGTACACATTATAACCATATATAA [CACACA_site5933],9.74
12,AAATATATCATACAAAGTACTTGGAATTAATATATA [XGTACX_site8907],9.64
13,AATATAATATAATGCACACATAAAACAAAAAAAAAA [CACACA_site3012],9.92
14,TAATTTTTCCAACTTTGTACAGATATATTAATAAAA [XGTACX_site7856],9.06
15,TCTTTTAAATAACAACATAAATAAATAAATAAATAA [GTGCAC_negctrl_site319],9.28
16,GTTGATACATGAAGCTGTACATAATATTTGTCATTT [XGTACX_site8628],9.73
17,GTCATATTAATATGTACACACATATTTATATTTATA [CACACA_site6798],9.83
18,TTTTTACTATTTATATGACTAAAAATATATTGAATA [CACACA_negctrl_site188],9.42
19,TAAATTAATAAACAAGTGCATATATATATATATATA,9.5
20,CAAGCACACGGACACACACACACACGCGCACGCACA [CACACA_site6307],11.3
21,TTTTATGTAACATCACGTACTTATATTTAAGTATTC [XGTACX_site7459],9.74
22,CAATTTATTTTTATTACACACTATCCAAGTAATTTC [CACACA_site7402],9.78
23,TATAGCAAAAAATTTACACACATGTTTTTTCTATAC [CACACA_site325],9.9

row,Sequence,gcPBM binding intensity (ln)
1,GGCATTTTATGAAGTAGTACCATAAATATTAAAGAT [XGTACX_site5287],9.59
2,ATGTTTTATAAAAGGCGTACACATATGCTTAAGTAA [XGTACX_site6232],9.71
3,CCTTTATTTTATATGTGTACTAAATTGTATATATAT [XGTACX_site8717],9.75
4,CTGAAGGAAAAAGAAAGTACTTTTTTTTTTTTGAAG [XGTACX_site5973],9.05
5,AAAAAAAAAATATCATGTACAAATATAATAAAATTT [XGTACX_site3896],9.79
6,AAATTTTTTATGAACACACAAATACACGCACTCAAA [CACACA_site7286],10.1
7,AATAATAAAATAAAGGCATGCACAATATGCTATAAA [TGCATGCA_site645],10.1
8,TAAAATATATAAAACTGTACATTTTAAAGGCACAAC [XGTACX_site8342],9.98
9,AATTAAAATAGTAATACACACTTCATAGGAAATGAT [CACACA_site5045],9.75
10,TATGTATCAAATAAATGTACATATATATATATATAT [XGTACX_site2189],9.59
11,TGATTAAATAAATATATATATTTATATATTATACAG [CACACA_negctrl_site1596],9.4
12,TATATATATATATATGTGCACTGGACATATTTTTAT [GTGCAC_site9721],9.89
13,GCTCTATCAAAAAAATGTACACATATTATCATTCAT [XGTACX_site143],9.64
14,CAAATAAATATTAAAAGTACACACAGATACACTAAT [XGTACX_site3749],10.2
15,TTTTTATTTAATAGTTGTACATTGAAAAATATGTAT [XGTACX_site3025],9.41
16,AATATTTATATTTAGTGTACAGAAATAAAAAAAAAA [XGTACX_site6066],9.68
17,CAAAAAAAAAAAAAAACACACATTAAATTAGAAAGA [CACACA_site7271],9.66
18,ATATACATTTAAATGTGTACATAATAAAATAAAAAA [XGTACX_site8170],9.54
19,GCTAATTTATTTTGCAGTACATATATAATAATATAT [XGTACX_site478],9.4
20,ACCCATAAAAATTATGCACACTTAATAAAGCGAAAT [CACACA_site5722],9.81
